Source: PubChem BioAssay AID1845200 (Molecular Pharmacology Branch, DTP, NCI, 2023)
A number of entries come with more than one value. Only these are listed. There may be further records. Values given together repeat one measurement across runs, samples, wells, individuals or studies. Marks such as [2022-09] give the month of the run.

System: ASPS-1 complex tumor spheroids, viability
Experiment: Anticancer human tumor ASPS-1 cell line growth inhibition;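 further: spheroids exposed to agents for 7 days after 3 days of growth; 100% = DMSO vehicle treated spheroids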
Conditions: compound alone 0.3 µM; stronger effect = lower value
From the text: Multicellular complex tumor spheroid response to DNA repair inhibitors in combination with DNA-damaging drugs
This study explores the anticancer activities of DNA-damaging drugs and inhibitors of DNA damage repair, both as single agents and in combinations. Complex tumor spheroids comprised of malignant cells, endothelial cells and mesenchymal stem cells served as an in vitro model for human solid tumors. This model system incorporates physiologically relevant features and patient-derived or established malignant cell lines with clinically relevant genetic alterations from many tumor types. Twenty-six patient-derived or established malignant cell lines were evaluated representing sarcoma, melanoma, small cell lung cancer (SCLC), non-small cell lung cancer (NSCLC), as well as bladder, ovarian and pancreatic cancers. The concentration ranges selected for each drug and investigational agent were based upon clinically achievable concentrations if the clinical Cmax of the agent was known.
Compounds. […] If the clinical Cmax for an agent had not been determined, the highest concentration tested was 10 microM. […]

## CC[C@@]1(O)C(=O)OCc2c1cc1n(c2=O)Cc2cc3c(CN(C)C)c(O)ccc3nc2-1
  viability, T/C: 47.8, 43.3, 50.7, 50.2, 52% [2019-11] and 73.8, 70.2, 65.3, 60.7, 64.4% [2019-12]
